# Whole data set: some 33,000 sequences, median “E-score (-0.5 to 0.5)” near -0.012, cut for the highest 2% near 0.29. Some of the results follow.
# Molecular target: T1, Ybr033w (UniProt P38073)
# T1 sequence: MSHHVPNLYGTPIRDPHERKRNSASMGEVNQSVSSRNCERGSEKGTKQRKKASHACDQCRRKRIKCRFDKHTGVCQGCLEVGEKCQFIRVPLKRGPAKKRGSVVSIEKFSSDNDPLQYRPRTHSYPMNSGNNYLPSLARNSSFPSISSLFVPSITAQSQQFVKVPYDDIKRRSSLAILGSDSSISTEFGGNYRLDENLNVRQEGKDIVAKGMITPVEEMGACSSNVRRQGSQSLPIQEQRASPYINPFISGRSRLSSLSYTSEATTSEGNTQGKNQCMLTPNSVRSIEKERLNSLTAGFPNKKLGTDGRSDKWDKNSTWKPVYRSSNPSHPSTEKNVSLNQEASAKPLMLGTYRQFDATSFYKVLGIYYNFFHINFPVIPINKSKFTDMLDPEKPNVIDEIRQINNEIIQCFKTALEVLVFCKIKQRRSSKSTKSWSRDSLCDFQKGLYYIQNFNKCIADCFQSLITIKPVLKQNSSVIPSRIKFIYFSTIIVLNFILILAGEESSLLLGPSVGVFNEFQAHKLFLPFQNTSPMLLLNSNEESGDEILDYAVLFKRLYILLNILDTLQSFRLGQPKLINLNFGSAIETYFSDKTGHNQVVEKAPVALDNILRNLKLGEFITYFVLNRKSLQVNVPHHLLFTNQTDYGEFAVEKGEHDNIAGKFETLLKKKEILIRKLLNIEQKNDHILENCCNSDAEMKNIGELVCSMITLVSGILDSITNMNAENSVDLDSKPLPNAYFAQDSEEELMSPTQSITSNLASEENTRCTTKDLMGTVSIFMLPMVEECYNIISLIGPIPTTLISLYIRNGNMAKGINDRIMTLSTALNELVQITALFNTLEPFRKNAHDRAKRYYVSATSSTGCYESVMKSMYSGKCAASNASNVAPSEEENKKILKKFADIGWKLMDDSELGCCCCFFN
# Experiment: PBM E-score (8-mer binding enrichment) (E-score (-0.5 to 0.5)); higher = stronger / more preferred TF binding; most listed sequences are background and not binding sites
# Conditions: protein concentration: 200 nM; construct: GST-full length
# Summary of the method: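 Using PURExpress in vitro transcription/translation, GST-tagged yeast transcription factors were made in full-length or DNA-binding-domain form. These were applied at about 100-200 nM to double-stranded universal all-10-mer Agilent arrays, and bound protein was detected with fluorescent anti-GST. Scans were normalised with masliner before the Universal PBM Analysis Suite assigned E-scores to ungapped eight-base words pooled with their reverse complements.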
row,Sequence,PBM E-score
1,ATGATGTC,0.112
2,AGAAATGG,-0.0479
3,CCTGGCTA,-0.152
4,CAGGAGTC,-0.099
5,CACAAGGC,-0.158
6,AACGTGGC,-0.0586
7,CGATCCGC,-0.0786
8,ACTCGGGA,0.102
9,AGTATTAC,0.283
10,CCTTCCTC,-0.253
11,CACTAACG,-0.0627
12,CGGTAAAA,0.244
13,GACCTGCC,-0.255
14,GAATATTC,0.344
15,GCGTGACC,-0.213
16,CACAGAGA,0.0183
17,AAGCCCAA,-0.00409
18,CAACCGGA,0.0416
19,CAATCTAG,0.217
20,CGTGTACA,0.18
21,CACTTTAA,0.233
22,CTAATTTA,0.257
23,CCTAGACG,-0.111
24,CACTGCAG,-0.0371
25,ATACCACG,0.0729

row,Sequence,PBM E-score
1,AGATTCGC,0.11
2,ATGGCGTG,-0.0302
3,GAAAGCGC,-0.0759
4,GAACCTTC,-0.0145
5,GTAAAAGA,0.155
6,ACCAAAGT,0.0666
7,ACAGCTGG,-0.228
8,TTCCTCAA,0.0682
9,AACCAGTG,-0.164
10,CGAAGCAG,-0.125
11,GAGTACTC,-0.0318
12,GCAGTGTA,-0.0047
13,TGGTGGAA,0.137
14,AGGAGCCA,-0.0808
15,AACACTCA,0.13
16,ACAGGCCG,-0.216
17,AGATACTC,0.0315
18,ACTGACGA,-0.0835
19,AGTCTCCG,0.0071
20,GAAAAATA,0.397
21,AAGGACAT,-0.0316
22,GCTGCCAC,-0.162
23,ACCAGCTC,-0.0828
24,CGTCAACG,-0.0824
25,TAAGTTAA,0.206

row,Sequence,PBM E-score
1,ACATCGCG,0.0198
2,CCTGCCGC,-0.318
3,TCGGTAAA,0.0329
4,GATTGTGC,0.125
5,ACCTTTTA,-0.0294
6,ATCCTTTG,0.0379
7,CCGCCGCG,-0.155
8,CACTTTTC,0.255
9,GTATGCAC,-0.139
10,GATCGGCC,-0.241
11,CCTGGATA,-0.119
12,AAAATCCT,0.0338
13,ATGCCCGG,-0.0338
14,CCAAAAAG,0.109
15,GTGTTATA,0.142
16,ACCACGGG,-0.208
17,AATTTTAC,0.282
18,CCCGCCGA,-0.211
19,ACATTAAG,0.278
20,ACCGGTTA,-0.0148
21,CCCAAGGC,-0.126
22,GGAGGCTA,-0.252
23,GTTGGGTA,0.0529
24,ATAATCGC,0.065
25,CAGATGCA,-0.275

row,Sequence,PBM E-score
1,AACCACGA,0.0821
2,CATAACCC,-0.0807
3,AGAAACAA,0.258
4,GAATTGTA,0.215
5,CTTGCAAA,0.0795
6,CCTTAAAG,0.0759
7,CCGTGGCG,-0.244
8,ATACAGAA,0.137
9,CATGGCGG,-0.291
10,CATTTAGG,-0.143
11,AGCTGGTG,-0.141
12,GCTTCGGA,0.119
13,CTGCAGAA,-0.0198
14,CCGTTCGA,0.0178
15,CGCGGCTC,-0.13
16,CAAGTTCA,0.183
17,GATTATGA,0.198
18,GTCGCGGA,-0.162
19,CAAGCATA,-0.011
20,CTATAATA,0.156
21,AGGGGTAT,-0.219
22,CACATCCA,0.0566
23,GCATAGGC,-0.216
24,AACATAGC,0.0451
25,ACGCCGTA,0.0613

row,Sequence,PBM E-score
1,ACAACACT,0.22
2,CCAAATAC,-0.0715
3,CTTGCAGA,-0.043
4,CTCGGAAA,0.168
5,GGATGTTA,0.0298
6,CCCTCTTA,-0.00358
7,CAACGTAC,0.0636
8,AAGGCTTG,-0.12
9,ACTAAATA,0.322
10,CCAGCGGA,-0.326
11,CGATAGCG,-0.0418
12,ACGCATGC,0.113
13,AGGGTTCG,-0.257
14,TCCTTGAA,-0.0413
15,CCAGGTCC,-0.333
16,ACGGATAT,0.192
17,TATTGACA,0.00171
18,GTTATCTA,0.171
19,CGACATCG,-0.191
20,ACAGCCCT,-0.179
21,CTCTCACC,-0.133
22,GACCAGCA,-0.114
23,AACACCGT,-0.231
24,GCCCCCCC,-0.428
25,AATTAGCT,0.122

row,Sequence,PBM E-score
1,AGCGCGAA,0.0642
2,CTGCGGAA,-0.117
3,GATATTCA,0.12
4,CCGCACTC,0.103
5,AAGTCTAC,0.0377
6,AACAAGGT,0.0196
7,ATAAATTC,0.308
8,TACTCCCA,0.0906
9,CCACACCC,-0.118
10,CATGATCG,0.0156
11,GCCCCAGA,-0.197
12,CGCATATC,0.19
13,CAGGCTAC,-0.131
14,CTGGTCAC,0.0118
15,ACGTGGAC,-0.132
16,AGGAGTTG,-0.046
17,CAAAGCCC,-0.0974
18,ACCGGACA,-0.258
19,CGGCTAGA,-0.134
20,AACCTTCA,0.0345
21,AAGCATAT,0.0942
22,AGCCTACC,-0.0524
23,AATATACG,0.0565
24,GCAATAAA,0.187
25,CGTGTCGA,-0.0365

row,Sequence,PBM E-score
1,CATAACTC,0.0871
2,CAGGCAAC,-0.0967
3,CGGAATCA,0.104
4,CACGTATG,0.0761
5,AAATGGAG,0.126
6,GGCCTTCA,-0.137
7,AACCGACA,0.108
8,CAATTTGG,0.108
9,ACACGGGA,-0.182
10,CGTACCGC,-0.17
11,CTCCCACA,-0.139
12,GCTTGTCA,-0.0866
13,AACACTTC,0.21
14,ATCGGCAC,-0.00252
15,CTATGGGC,-0.162
16,ACCACCCT,-0.184
17,GCCCGGGA,-0.0848
18,CCCCGCGC,-0.298
19,GTTAATCA,0.277
20,ACGGGAGG,-0.258
21,CAACGAAA,0.209
22,TCTTACAA,-0.00467
